In experiment [1] the target is T1, ectodomain of murine βKlotho (F53 to L995 of SEQ ID NO: 218) with a C-terminal FLAG tag (murine, UniProt Q99N32 53-995).
T1 construct: Expressed in HEK293 cells and purified from culture media; also called βKlotho ectodomain; not shown: C-terminal FLAG tag
T1 sequence: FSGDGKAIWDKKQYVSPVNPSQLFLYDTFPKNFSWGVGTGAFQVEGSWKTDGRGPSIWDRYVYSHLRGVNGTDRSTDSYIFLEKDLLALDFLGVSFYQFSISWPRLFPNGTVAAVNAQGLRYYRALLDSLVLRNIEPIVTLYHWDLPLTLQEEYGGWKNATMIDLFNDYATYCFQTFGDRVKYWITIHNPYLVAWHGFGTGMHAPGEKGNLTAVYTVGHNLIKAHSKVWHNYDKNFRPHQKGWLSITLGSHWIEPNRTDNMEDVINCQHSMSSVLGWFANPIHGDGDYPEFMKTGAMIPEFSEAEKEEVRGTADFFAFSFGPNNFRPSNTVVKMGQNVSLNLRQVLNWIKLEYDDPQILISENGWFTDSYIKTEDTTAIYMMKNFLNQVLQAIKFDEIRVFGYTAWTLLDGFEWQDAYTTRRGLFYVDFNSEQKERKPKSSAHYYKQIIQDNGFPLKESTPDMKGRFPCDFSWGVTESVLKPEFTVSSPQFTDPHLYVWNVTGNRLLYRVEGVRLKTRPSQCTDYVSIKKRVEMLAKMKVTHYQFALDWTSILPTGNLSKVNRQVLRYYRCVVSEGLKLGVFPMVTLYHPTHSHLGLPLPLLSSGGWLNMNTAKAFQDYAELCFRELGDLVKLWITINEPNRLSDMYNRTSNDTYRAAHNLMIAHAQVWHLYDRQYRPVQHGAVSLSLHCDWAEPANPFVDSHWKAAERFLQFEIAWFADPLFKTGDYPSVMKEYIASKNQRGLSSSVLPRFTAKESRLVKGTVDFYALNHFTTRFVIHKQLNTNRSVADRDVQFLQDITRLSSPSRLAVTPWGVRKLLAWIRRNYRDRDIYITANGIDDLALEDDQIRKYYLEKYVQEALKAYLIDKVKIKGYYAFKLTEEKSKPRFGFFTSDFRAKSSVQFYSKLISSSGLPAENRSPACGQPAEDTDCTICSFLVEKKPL
Description: SPR; βKlotho ectodomain immobilized, FGFR4 ligand-binding domain as analyte (FIG. 3D). The procedure: (§1) SPR experiments were performed on a Biacore 2000 instrument (Biacore AB), and all the protein-protein and protein-peptide interactions were studied at 25° C. in HBS-EP buffer (10 mM HEPES-NaOH, pH 7.4, 150 mM NaCl, 3 mM EDTA, 0.005% (v/v) polysorbate 20). Proteins were immobilized by amine coupling on flow channels of research grade CM5 chips (Biacore AB). Proteins were injected over a CM5 chip at a flow rate of 50 μl min⁻¹, and at the end of each protein injection (180 s), HBS-EP buffer (50 μl min⁻¹) was flowed over the chip to monitor dissociation for 180 s. In experiments where βKlotho binding to FGFR was analyzed, the chip surface was then regenerated by injecting 50 μl of 2.0 M NaCl in 10 mM sodium/potassium phosphate, pH 6.5. In experiments where α/βKlotho binding to FGF19/21/23 or binding of the FGFR1c-βKlotho complex to FGF21 was studied, 2.0 M NaCl in 10 mM sodium acetate, pH 4.5 was used for chip regeneration. To control for nonspecific binding in experiments where the ectodomain of αKlotho or βKlotho was immobilized on the chip, β-glucuronidase was coupled to the control flow channel of the chip (˜43-68 fmol/mm²). […] For each protein injection over a chip onto which αKlotho or βKlotho had been immobilized, the nonspecific responses from the β-glucuronidase control flow channel were subtracted from the responses recorded for the α/βKlotho flow channel.

Experiment [2] has as its target T2, 1:1 binary complex of FGFR4 ligand-binding domain and βKlotho ectodomain (human; murine, UniProt P22455 144-355; Q99N32 53-995).
T2 construct: also called FGFR4-βKlotho complex; not shown: C-terminal FLAG tag
T2 sequence 1: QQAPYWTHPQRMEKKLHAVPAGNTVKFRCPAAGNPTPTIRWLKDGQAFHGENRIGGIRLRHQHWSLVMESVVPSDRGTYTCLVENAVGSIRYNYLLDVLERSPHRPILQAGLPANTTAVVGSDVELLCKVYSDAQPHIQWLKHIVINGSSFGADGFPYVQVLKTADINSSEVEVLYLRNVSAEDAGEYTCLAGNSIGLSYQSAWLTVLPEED
T2 sequence 2: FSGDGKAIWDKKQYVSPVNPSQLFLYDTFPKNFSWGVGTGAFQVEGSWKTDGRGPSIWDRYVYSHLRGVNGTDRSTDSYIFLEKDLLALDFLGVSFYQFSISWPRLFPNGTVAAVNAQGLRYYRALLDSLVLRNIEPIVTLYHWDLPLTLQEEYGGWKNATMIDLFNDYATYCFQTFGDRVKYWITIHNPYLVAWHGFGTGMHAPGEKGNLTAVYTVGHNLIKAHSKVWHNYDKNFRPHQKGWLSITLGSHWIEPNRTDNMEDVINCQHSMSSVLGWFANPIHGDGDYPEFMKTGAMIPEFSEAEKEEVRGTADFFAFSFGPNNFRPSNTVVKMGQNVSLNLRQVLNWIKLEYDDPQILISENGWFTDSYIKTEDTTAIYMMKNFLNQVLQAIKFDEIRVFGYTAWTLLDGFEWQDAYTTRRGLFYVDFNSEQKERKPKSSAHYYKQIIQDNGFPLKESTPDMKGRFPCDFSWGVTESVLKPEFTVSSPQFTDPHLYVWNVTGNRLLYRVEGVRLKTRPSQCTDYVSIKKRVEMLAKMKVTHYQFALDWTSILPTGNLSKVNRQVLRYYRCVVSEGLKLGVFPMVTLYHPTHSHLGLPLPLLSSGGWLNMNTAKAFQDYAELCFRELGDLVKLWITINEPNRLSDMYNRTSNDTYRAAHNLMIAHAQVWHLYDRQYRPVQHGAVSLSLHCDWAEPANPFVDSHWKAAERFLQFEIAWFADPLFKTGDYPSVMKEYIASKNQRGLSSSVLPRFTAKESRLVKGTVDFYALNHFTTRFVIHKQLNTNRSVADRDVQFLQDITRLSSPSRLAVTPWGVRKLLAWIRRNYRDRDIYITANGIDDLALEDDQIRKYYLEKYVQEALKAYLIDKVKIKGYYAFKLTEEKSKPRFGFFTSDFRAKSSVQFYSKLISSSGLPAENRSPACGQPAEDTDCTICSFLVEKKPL
Description: size-exclusion chromatography (FIGS. 2A, 2B). The procedure: Size-exclusion chromatography experiments were performed on a HiLoad™ 16/60 Superdex™ 200 prep grade column (GE Healthcare) mounted on an ÄKTApurifier (GE Healthcare). […] Sample injection volume was 0.9 to 2.0 ml, and the flow rate was 1.0 ml min⁻¹. Protein retention times were determined by absorbance at 280 nm. The column was calibrated with ferritin (440 kDa), immunoglobulin G (150 kDa), albumin (69.3 kDa), ovalbumin (44.3 kDa), carbonic anhydrase (28.8 kDa), and ribonuclease A (13.7 kDa). The void volume was determined using blue dextran 2,000, and the column volume was measured with acetone. To examine ternary complex formation between FGF21, FGFR1c, and βKlotho, 2.72 μmol of the 1:1 binary complex of FGFR1c ligand-binding domain and βKlotho ectodomain were mixed with 9.25 μmol of FGF21, and the mixture was applied to the size-exclusion column. The retention time of the FGFR1c-βKlotho complex alone served as a reference point. To examine ternary complex formation between FGF19, FGFR4, and βKlotho, 2.46 μmol of the 1:1 binary complex of FGFR4 ligand-binding domain and βKlotho ectodomain were mixed with 8.51 μmol of FGF19, and the mixture was applied to the size-exclusion column. The retention time of the FGFR4-βKlotho complex alone served as a reference point. […]
On the technique in general: SEC sorts molecules by how far they enter the pores of the column.

Experiment [3] deals with T1, ectodomain of murine βKlotho (F53 to …). Description: SPR; FGF19 immobilized, βKlotho ectodomain as analyte (FIG. 4A). From the text: FGF19 was immobilized on a biosensor chip, and increasing concentrations of βKlotho ectodomain were passed over the chip. […] FGF21 was immobilized on a biosensor chip, and increasing concentrations of βKlotho ectodomain were passed over the chip. Note that for any given concentration of βKlotho, the binding response is greater on the FGF19 chip surface than on the FGF21 chip surface. Also note that the FGF19-βKlotho complex dissociates more slowly than the FGF21-βKlotho complex (compare the dissociation phases of the sensorgrams shown in (A) and (B)). […] FGF23 was immobilized on a biosensor chip, and increasing concentrations of βKlotho ectodomain were passed over the chip. […] FGF19 was immobilized on a biosensor chip, and increasing concentrations of αKlotho ectodomain were passed over the chip. […] FGF21 was immobilized on a biosensor chip, and increasing concentrations of αKlotho ectodomain were passed over the chip. […]
SPR experiments were performed on a Biacore 2000 instrument (Biacore AB), and all the protein-protein and protein-peptide interactions were studied at 25° C. in HBS-EP buffer (10 mM HEPES-NaOH, pH 7.4, 150 mM NaCl, 3 mM EDTA, 0.005% (v/v) polysorbate 20). […] In experiments where βKlotho binding to FGFR was analyzed, the chip surface was then regenerated by injecting 50 μl of 2.0 M NaCl in 10 mM sodium/potassium phosphate, pH 6.5.

Experiment [4] concerns the target T3, ectodomain of murine αKlotho (A35 to K982 of SEQ ID NO: 231) with a C-terminal FLAG tag (murine, UniProt O35082 35-982).
T3 construct: Purified from culture media of a HEK293 cell line; also called αKlotho ectodomain; not shown: C-terminal FLAG tag
T3 sequence: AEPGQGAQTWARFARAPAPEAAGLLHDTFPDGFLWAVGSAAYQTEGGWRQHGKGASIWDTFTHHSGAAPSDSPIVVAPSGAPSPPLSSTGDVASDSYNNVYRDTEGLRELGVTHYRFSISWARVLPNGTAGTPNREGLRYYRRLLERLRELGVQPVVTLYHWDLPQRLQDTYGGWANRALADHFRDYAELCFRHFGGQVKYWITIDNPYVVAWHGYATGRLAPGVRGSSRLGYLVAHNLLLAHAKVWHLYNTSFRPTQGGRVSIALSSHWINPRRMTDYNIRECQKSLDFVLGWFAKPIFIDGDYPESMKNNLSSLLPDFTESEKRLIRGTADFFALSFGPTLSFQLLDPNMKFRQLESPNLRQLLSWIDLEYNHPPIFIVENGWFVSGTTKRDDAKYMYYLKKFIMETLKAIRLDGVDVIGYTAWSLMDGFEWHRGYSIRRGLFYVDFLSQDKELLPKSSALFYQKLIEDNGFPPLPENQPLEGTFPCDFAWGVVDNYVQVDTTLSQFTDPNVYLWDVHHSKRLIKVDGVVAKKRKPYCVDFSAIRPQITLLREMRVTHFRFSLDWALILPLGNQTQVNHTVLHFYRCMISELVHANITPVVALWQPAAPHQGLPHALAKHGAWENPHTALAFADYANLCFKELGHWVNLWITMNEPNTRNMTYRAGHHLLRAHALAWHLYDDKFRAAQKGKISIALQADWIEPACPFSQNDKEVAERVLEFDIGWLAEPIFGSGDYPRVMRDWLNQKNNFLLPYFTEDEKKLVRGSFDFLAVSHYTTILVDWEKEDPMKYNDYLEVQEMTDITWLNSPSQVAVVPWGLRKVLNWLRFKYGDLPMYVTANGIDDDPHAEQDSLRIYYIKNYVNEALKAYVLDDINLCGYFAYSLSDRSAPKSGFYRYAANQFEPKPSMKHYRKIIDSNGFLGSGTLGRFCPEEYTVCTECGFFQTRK
Description: SPR; FGF19 immobilized, increasing concentrations of αKlotho ectodomain passed over the chip (FIG. 4D). The procedure: as §1
A general note: Surface plasmon resonance follows binding to a sensor surface in real time, without labels.

Consider two molecules from patent US20130231277A1 (NEW YORK UNIVERSITY, published 2013).

B1: ligand-binding domain of human FGFR4 ([…] of SEQ ID NO: 230) (receptor)
chain: not shown
As for B1, the binding result in experiment [1] is “binds”.

B2: human FGF19, secreted bioactive form ([…] of SEQ ID NO: 1) (ligand)
chain: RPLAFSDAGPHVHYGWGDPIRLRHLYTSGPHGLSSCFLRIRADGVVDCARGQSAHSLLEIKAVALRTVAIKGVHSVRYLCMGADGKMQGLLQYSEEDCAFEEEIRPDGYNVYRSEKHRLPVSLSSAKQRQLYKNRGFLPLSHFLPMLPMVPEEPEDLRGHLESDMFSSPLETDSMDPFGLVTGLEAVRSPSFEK
For B2, the binding result is listed as “binds” in experiment [2], “binds” in experiment [3] and “no binding” in experiment [4].
